Data published in PubChem BioAssay (NCATS).
The other results are listed elsewhere or left out. These are further read-outs of the screen, such as a control signal, another cell line or another target. No call is given for them. For some assays here: Compounds called inactive in the main read-out are mostly missing here. Words in brackets tell the shape of the fitted curve; partial curves, single points and poor fits give uncertain potencies.

Columns and labels:
[1] = qHTS drug screen for cell cycle checkpoint inhibitors in PARPi-resistant BRCA-mutant ovarian cancer cell lines. (AID 1963452); settings: PEO1/OlaR viability, CellTiter-Glo luminescence, 96 h
Summary of the method: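 PEO1, PEO4 and PEO1/OlaR ovarian cancer cells, 600 per well, exposed 96 h at 37C to a dilution series. Viability read by CellTiter-Glo luminescence, normalized to DMSO and empty wells; activity summarized as Z-AUC.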

[2] = qHTS for identification of novel therapeutic agents for treatment of microphthalmiaassociated transcription factor (MiT) renal cell carcinoma (RCC) (AID 1963991); settings: TFE3-RCC viability, CellTiter-Glo, 48 h
Summary of the method: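 Viability of three TFE3-fusion renal carcinoma lines measured by CellTiter-Glo after 48 h treatment with each of 1912 compounds at 11 concentrations. Responses scaled between DMSO (100%) and empty wells (0%) before curve fitting.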

[3] = measured here: PEO1 parental viability
[4] = measured here: UOK124 cell viability
[5] = measured here: UOK145 cell viability
Tags give direction and shape of the fitted curve.

Compound: COC(=O)C[C@](O)(CCCC(C)(C)O)C(=O)O[C@@H]1C(OC)=C[C@]23CCCN2CCc2cc4c(cc2[C@H]13)OCO4
- AC50 [1, 3]: 195 nM [falling, full curve]
- AC50 ([1]; measured here: PEO4 viability): 87.1 nM [falling, full curve]

Compound: O=C(NOCC(O)CO)c1ccc(F)c(F)c1Nc1ccc(I)cc1F (configuration not stated)
- AC50 [1, 3]: 245 nM [falling, full curve]
- AC50 ([1]; measured here: PEO4 viability): 347 nM [falling, full curve, poor fit]

Compound: Nc1nc(F)nc2c1ncn2[C@@H]1O[C@H](CO)[C@@H](O)[C@@H]1O
- AC50 [1, 3]: 6920 nM [falling, partial curve]
- AC50 ([1]; measured here: PEO4 viability): 3470 nM [falling, full curve]
- AC50 [2, 4]: 662 nM [falling, full curve]
- AC50 [2, 5]: 372 nM [falling, full curve]

Compound: CC(C)c1cnn2c(NCc3ccccc3)cc(N[C@@H](CO)[C@H](O)CO)nc12
- AC50 [1, 3]: 110 nM [falling, full curve]
- AC50 ([1]; measured here: PEO4 viability): 174 nM [falling, full curve]
- AC50 [2, 4]: 264 nM [falling, full curve]
- AC50 [2, 5]: 264 nM [falling, full curve]

Compound: O=C(NO)c1cnc(NC2(c3ccccc3)CC2)nc1
- AC50 [1, 3]: 15500 nM [falling, single point]
- AC50 ([1]; measured here: PEO4 viability): 19500 nM [falling, partial curve]

Compound: Nc1nccc2c1ncn2[C@@H]1C=C(CO)[C@@H](O)[C@H]1O
- AC50 [1, 3]: 2190 nM [falling, full curve]
- AC50 ([1]; measured here: PEO4 viability): 616 nM [falling, partial curve]

Compound: N#Cc1cccnc1N1CCN(C(=O)c2cccc(Cc3n[nH]c(=O)c4ccccc34)c2)CC1
- AC50 [1, 3]: 245 nM [falling, full curve]
- AC50 ([1]; measured here: PEO4 viability): 1950 nM [falling, full curve, poor fit]

Compound: N#Cc1cc2cc(CN3CCC(Nc4ncnc5sc(CC(F)(F)F)cc45)CC3)c(O)cc2n1Cc1cn[nH]c1
- AC50 [1, 3]: 15500 nM [falling, partial curve]
- AC50 ([1]; measured here: PEO4 viability): 17400 nM [falling, partial curve]

Compound: CS(=O)(=O)N1CCN(Cc2cc3nc(-c4cccc5[nH]ncc45)nc(N4CCOCC4)c3s2)CC1
- AC50 [1, 3]: 6920 nM [falling, partial curve]
- AC50 ([1]; measured here: PEO4 viability): 4900 nM [falling, partial curve]
- AC50 [2, 4]: 9350 nM [falling, partial curve]
- AC50 [2, 5]: 1320 nM [falling, full curve]

Compound: COc1cc(N2CCN(C)CC2)ccc1Nc1ncc2c(n1)N(C)c1ccccc1C(=O)N2
- AC50 [1, 3]: 21900 nM [falling, partial curve, poor fit]
- AC50 ([1]; measured here: PEO4 viability): 13800 nM [falling, partial curve]

Compound: CC(=O)c1cnc2ccc(-c3cc(Cl)c(O)c(Cl)c3)nc2c1NC1CCC(CN(C)C)CC1 (configuration not stated)
- AC50 [1, 3]: 448 nM [falling, full curve]
- AC50 ([1]; measured here: PEO4 viability): 633 nM [falling, full curve]

Compound: CN1C(=O)c2sccc2N(C)c2nc(Nc3ccc(S(N)(=O)=O)cc3)ncc21
- AC50 [1, 3]: 7760 nM [falling, partial curve, poor fit]
- AC50 ([1]; measured here: PEO4 viability): 1550 nM [falling, full curve]

Compound: CC1(C)CC(=O)c2c(C(F)(F)F)nn(-c3ccc(C(N)=O)c(NC4CCC(O)CC4)c3)c2C1 (configuration not stated)
- AC50 [1, 3]: 219 nM [falling, full curve]
- AC50 ([1]; measured here: PEO4 viability): 1380 nM [falling, full curve]
- AC50 [2, 4]: 132 nM [falling, full curve]
- AC50 [2, 5]: 264 nM [falling, full curve]

Compound: O=C([C@@H](Cc1cccc(C(F)(F)F)c1)NS(=O)(=O)c1cc(F)c2c(c1)CCNC2)N1CCCC1
- AC50 [1, 3]: 1380 nM [falling, partial curve, poor fit]
- AC50 ([1]; measured here: PEO4 viability): 19500 nM [falling, partial curve, poor fit]

Compound: NC(=O)[C@H]1CCS[C@@H]2C[C@]3(CCCN3C(=O)Cc3ccc(NC(=O)COc4ccc(Cl)cc4Cl)cc3)C(=O)N12
- AC50 [1, 3]: 2450 nM [falling, full curve]
- AC50 ([1]; measured here: PEO4 viability): 6160 nM [falling, partial curve]

Compound: COCCN1CCN(Cc2ccc(-c3n[nH]c4c3C(=O)c3c(NC(=O)NN5CCOCC5)cccc3-4)cc2)CC1
- AC50 [1, 3]: 19500 nM [falling, partial curve, poor fit]
- AC50 ([1]; measured here: PEO4 viability): 21900 nM [falling, partial curve, poor fit]

Compound: COc1cc([C@@H]2c3cc4c(cc3[C@@H](O[C@@H]3O[C@@H]5CO[C@@H](c6cccs6)O[C@H]5[C@H](O)[C@H]3O)[C@H]3COC(=O)[C@H]23)OCO4)cc(OC)c1O
- AC50 [1, 3]: 245 nM [falling, full curve]
- AC50 ([1]; measured here: PEO4 viability): 347 nM [falling, full curve]

Compound: C=CC(=O)Nc1cccc(Oc2nc(Nc3ccc(N4CCN(C)CC4)c(F)c3)nc3[nH]ccc23)c1
- AC50 [1, 3]: 4900 nM [falling, full curve]
- AC50 ([1]; measured here: PEO4 viability): 2450 nM [falling, full curve]

Compound: Cc1c(NC(=O)c2cc(C(N)=O)nc3cc(F)ccc23)c(C(F)(F)F)nn1Cc1ccc(C#N)cc1
- AC50 [1, 3]: 155 nM [falling, full curve]
- AC50 ([1]; measured here: PEO4 viability): 245 nM [falling, partial curve, poor fit]

Compound: CN(C)C/C=C/C(=O)Nc1ccc(C(=O)N2CCC[C@@H](Nc3ncc(Cl)c(-c4c[nH]c5ccccc45)n3)C2)cc1
- AC50 [1, 3]: 97.7 nM [falling, full curve]
- AC50 ([1]; measured here: PEO4 viability): 138 nM [falling, full curve]

Compound: COc1c(OCCCN2CCOCC2)ccc2c3n(c(=NC(=O)c4cnc(N)nc4)nc12)CCN3
- AC50 [1, 3]: 178 nM [falling, full curve]
- AC50 ([1]; measured here: PEO4 viability): 283 nM [falling, full curve]
- AC50 [2, 4]: 7240 nM [falling, partial curve, poor fit]
- AC50 [2, 5]: 2880 nM [falling, partial curve]

Compound: C#CCC(Cc1cnc2nc(N)nc(N)c2n1)c1ccc(C(=O)N[C@@H](CCC(=O)O)C(=O)O)cc1 (some centres not stated)
- AC50 [1, 3]: 6.9 nM [falling, full curve]
- AC50 ([1]; measured here: PEO4 viability): 6.9 nM [falling, full curve]
- AC50 [2, 4]: 52.6 nM [falling, full curve]
- AC50 [2, 5]: 41.8 nM [falling, full curve]

Compound: O=C(Nc1ncc(SCCN2CCCC2)s1)[C@]1(c2ccc(S(=O)(=O)C3CC3)cc2)C[C@H]1C1CCCCC1
- AC50 [1, 3]: 19500 nM [falling, single point]
- AC50 ([1]; measured here: PEO4 viability): 24500 nM [falling, single point]

Compound: O=S(=O)(Nc1ccc(-c2cccnc2)c2cccnc12)c1cccc(C(F)(F)F)c1
- AC50 [1, 3]: 3890 nM [falling, full curve]
- AC50 ([1]; measured here: PEO4 viability): 6160 nM [falling, partial curve]

Compound: Nc1ccc(-c2ccc3ncc4ccc(=O)n(-c5cccc(C(F)(F)F)c5)c4c3c2)cn1
- AC50 [1, 3]: 77.6 nM [falling, full curve]
- AC50 ([1]; measured here: PEO4 viability): 49 nM [falling, full curve]
- AC50 [2, 4]: 83.3 nM [falling, full curve]
- AC50 [2, 5]: 9.35 nM [falling, full curve]

Compound: CNC(=O)Cn1cc(-c2ccc3c(c2)C(F)CC32NC(=O)N(CC(=O)N(Cc3ccc(F)cc3)[C@@H](C)C(F)(F)F)C2=O)cn1 (some centres not stated)
- AC50 [1, 3]: 77.6 nM [falling, full curve]
- AC50 ([1]; measured here: PEO4 viability): 54.9 nM [falling, full curve]

Compound: COCCn1c2c([n+](Cc3cnccn3)c1C)C(=O)c1ccccc1C2=O
- AC50 [1, 3]: 17.4 nM [falling, full curve]
- AC50 ([1]; measured here: PEO4 viability): 13.8 nM [falling, full curve]
- AC50 [2, 4]: 74.3 nM [falling, full curve]
- AC50 [2, 5]: 59 nM [falling, full curve]

Compound: COc1cccc(Nc2ncnn3ccc(CN4CC[C@@H](N)[C@H](O)C4)c23)c1
- AC50 [1, 3]: 3090 nM [falling, partial curve]
- AC50 ([1]; measured here: PEO4 viability): 3470 nM [falling, partial curve, poor fit]

Compound: COc1ccc(S(=O)(=O)Nc2cccnc2Nc2ccc(O)cc2)cc1
- AC50 [1, 3]: 616 nM [falling, full curve]
- AC50 ([1]; measured here: PEO4 viability): 1230 nM [falling, full curve]
- AC50 [2, 4]: 187 nM [falling, full curve]
- AC50 [2, 5]: 41.8 nM [falling, full curve]

Compound: CC[C@@H]1C(=O)N(C)c2cnc(Nc3ccc(C(=O)NC4CCC(N5CCN(CC6CC6)CC5)CC4)cc3OC)nc2N1C(C)C (some centres not stated)
- AC50 [1, 3]: 15.5 nM [falling, full curve]
- AC50 ([1]; measured here: PEO4 viability): 15.5 nM [falling, full curve]
- AC50 [2, 4]: 1180 nM [falling, full curve]
- AC50 [2, 5]: 2640 nM [falling, partial curve]

Compound: O=C1c2ccccc2-[n+]2ccc3c([nH]c4ccccc43)c21
- AC50 [1, 3]: 692 nM [falling, full curve]
- AC50 ([1]; measured here: PEO4 viability): 245 nM [falling, full curve]
- AC50 [2, 4]: 935 nM [falling, full curve]
- AC50 [2, 5]: 2090 nM [falling, full curve]

Compound: CN1C/C=C/CCOc2cccc(c2)-c2ccnc(n2)Nc2cccc(c2)C1
- AC50 [1, 3]: 245 nM [falling, full curve]
- AC50 ([1]; measured here: PEO4 viability): 389 nM [falling, full curve]

Compound: O=C(O)CC1CCC(c2ccc(-c3ccc(Nc4ccc(C(F)(F)F)nc4)cn3)cc2)CC1 (configuration not stated)
- AC50 [1, 3]: 4900 nM [rising, partial curve]
- AC50 ([1]; measured here: PEO4 viability): 123 nM [falling, single point]

Compound: CC(C)c1cc(C(=O)N2Cc3ccc(CN4CCN(C)CC4)cc3C2)c(O)cc1O
- AC50 [1, 3]: 195 nM [falling, full curve]
- AC50 ([1]; measured here: PEO4 viability): 174 nM [falling, full curve, poor fit]
- AC50 [2, 4]: 148 nM [falling, full curve]
- AC50 [2, 5]: 590 nM [falling, full curve]
